Article PMC12820563, “FoxP3 forms a head-to-head dimer in vivo and stabilizes its multimerization on adjacent microsatellites”
Some of the results follow.

molecular target: T1, MBP-FoxP1dN (Mus musculus, UniProt P58462 326-579); assay: PD-seq (MBP pull-down with sequencing); 20 mM Tris-HCl pH 7.5, 100 mM NaCl, 1.5 mM MgCl2, 0.4 uM protein, 0.1 uM dsDNA library, 30 min, room temperature, amylose pull-down; high values mean tight binding; settings: protein: recombinant; tags: His6-MBP; chain copies: 2; dsDNA, one strand shown
T1 sequence: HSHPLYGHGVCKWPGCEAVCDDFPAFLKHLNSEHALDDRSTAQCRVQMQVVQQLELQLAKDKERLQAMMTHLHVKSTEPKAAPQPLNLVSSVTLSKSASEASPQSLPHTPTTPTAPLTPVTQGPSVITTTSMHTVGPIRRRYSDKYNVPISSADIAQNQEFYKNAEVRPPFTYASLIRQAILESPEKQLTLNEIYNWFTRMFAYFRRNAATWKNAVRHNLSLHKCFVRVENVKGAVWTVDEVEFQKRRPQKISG
Summary of the method: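 Binding is the reads-per-million enrichment of pull-down relative to input, pooled across replicates. For this, 0.4 µM His6-MBP-tagged mouse FoxP3 or FoxP1 fragment lacking the N-terminus, made in E. coli, was incubated with 0.1 µM Klenow-filled double-stranded degenerate DNA library for 30 min at room temperature in Tris pH 7.5 buffer with NaCl and MgCl2. Complexes bound to amylose resin were washed three times before proteinase K released the DNA for PCR barcoding and Illumina sequencing.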

| Sequence | binding signal |
| --- | --- |
| GATGATTGTTCTCCCAGCTGATGAATTCAAGATATCGAGTAAACAAATTTTCCTAATCTTTCTGTTCAAGCGCCATCTAC | 0.908 RPM ratio (pull-down/input) |
| GATGATTGTTCTCCCAGCTGATGAATTTGGTCTGTCGAGTAAACAAATTTTCCTAATCTTTCTGTTCAAGCGCCATCTAC | 0.833 RPM ratio (pull-down/input) |
| GATGATTGTTCTCCCAGCTGATGAATTGGCGGAATCGAGTAAACAAATTTTCCTAATCTTTCTGTTCAAGCGCCATCTAC | 0.875 RPM ratio (pull-down/input) |
| GATGATTGTTCTCCCAGCTGATGAATTGCGTAGTTCGAGTAAACAAATTTTCCTAATCTTTCTGTTCAAGCGCCATCTAC | 1.04 RPM ratio (pull-down/input) |
| GATGATTGTTCTCCCAGCTGATGAATTGTGCTCGTCGAGTAAACAAATTTTCCTAATCTTTCTGTTCAAGCGCCATCTAC | 1.01 RPM ratio (pull-down/input) |
| GATGATTGTTCTCCCAGCTGATGAATTATTGTCTTCGAGTAAACAAATTTTCCTAATCTTTCTGTTCAAGCGCCATCTAC | 1.48 RPM ratio (pull-down/input) |
| GATGATTGTTCTCCCAGCTGATGAATTCATAGCCTCGAGTAAACAAATTTTCCTAATCTTTCTGTTCAAGCGCCATCTAC | 0.914 RPM ratio (pull-down/input) |
| GATGATTGTTCTCCCAGCTGATGAATTCGTGGACTCGAGTAAACAAATTTTCCTAATCTTTCTGTTCAAGCGCCATCTAC | 0.806 RPM ratio (pull-down/input) |
| GATGATTGTTCTCCCAGCTGATGAATTTCCACGGTCGAGTAAACAAATTTTCCTAATCTTTCTGTTCAAGCGCCATCTAC | 0.792 RPM ratio (pull-down/input) |
| GATGATTGTTCTCCCAGCTGATGAATTTTCTACATCGAGTAAACAAATTTTCCTAATCTTTCTGTTCAAGCGCCATCTAC | 1.02 RPM ratio (pull-down/input) |
| GATGATTGTTCTCCCAGCTGATGAATTATTGCAATCGAGTAAACAAATTTTCCTAATCTTTCTGTTCAAGCGCCATCTAC | 1.49 RPM ratio (pull-down/input) |
| GATGATTGTTCTCCCAGCTGATGAATTAACCATATCGAGTAAACAAATTTTCCTAATCTTTCTGTTCAAGCGCCATCTAC | 0.989 RPM ratio (pull-down/input) |
| GATGATTGTTCTCCCAGCTGATGAATTTATCGTATCGAGTAAACAAATTTTCCTAATCTTTCTGTTCAAGCGCCATCTAC | 1.22 RPM ratio (pull-down/input) |
| GATGATTGTTCTCCCAGCTGATGAATTTTAAGGCTCGAGTAAACAAATTTTCCTAATCTTTCTGTTCAAGCGCCATCTAC | 0.833 RPM ratio (pull-down/input) |
| GATGATTGTTCTCCCAGCTGATGAATTCATACCGTCGAGTAAACAAATTTTCCTAATCTTTCTGTTCAAGCGCCATCTAC | 0.868 RPM ratio (pull-down/input) |
| GATGATTGTTCTCCCAGCTGATGAATTATCCGAATCGAGTAAACAAATTTTCCTAATCTTTCTGTTCAAGCGCCATCTAC | 0.97 RPM ratio (pull-down/input) |
| GATGATTGTTCTCCCAGCTGATGAATTTGACGGATCGAGTAAACAAATTTTCCTAATCTTTCTGTTCAAGCGCCATCTAC | 0.841 RPM ratio (pull-down/input) |
| GATGATTGTTCTCCCAGCTGATGAATTCTTAAGTTCGAGTAAACAAATTTTCCTAATCTTTCTGTTCAAGCGCCATCTAC | 0.861 RPM ratio (pull-down/input) |
